# About 18,000 (5.8%) of roughly 310,000 compounds were called active. The shares of active, inactive and inconclusive entries below differ from those in the screen. Calls follow the shape of the dose curve; as a rule, active = well fitted inhibition curve with a large enough effect; inconclusive = small, poorly fitted or top-dose-only effect, or another doubt; inactive = no such curve, though single readings can be large or run the other way. No potency is given beside an inconclusive call; the fits are too rough.
# Test: Primary qHTS for delayed death inhibitors of the malarial parasite plastid, 48 hour incubation
# Conditions: P. falciparum luciferase growth in erythrocytes; series mostly up to 28.7 µM
# Method in brief: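 Parasite viability was followed by luminescence of a genomically integrated firefly luciferase. Cultures held 0.1% parasitemia at 2% hematocrit (final), incubated under 5% CO2 at 37 C.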
# Potency is read from the fitted curve at half-maximal effect; tags tell the direction and shape of the fitted curve.
row,SMILES,Potency
1,CCCC(=O)N1CCN(c2nnc(-c3ccc(C)cc3)c3ccccc23)CC1,active: 4.15 µM
2,COc1ccc(C2=NOC(C(=O)Nc3cccnc3)C2)cc1OC (centres undefined),"inconclusive [inhibitor, partial curve, poor fit]"
3,Cc1oc(-c2ccc(F)cc2F)nc1CN1C[C@@H]2C[C@@H](C1)c1cccc(=O)n1C2,"inconclusive [inhibitor, partial curve]"
4,Cc1ccc(C(=O)NCc2ccccc2CN2CCCC2)cc1S(=O)(=O)N1CCOCC1,"inconclusive [inhibitor, single point]"
5,Cc1nnc(NC(=O)CSc2nnc(Cc3cccn3C)n2CCc2ccccc2)s1,"inconclusive [inhibitor, single point]"
6,Cc1nc2ccc(NC(=O)c3ccc([N+](=O)[O-])cc3[N+](=O)[O-])cc2s1,"inconclusive [inhibitor, partial curve, poor fit]"
7,O=C(CCS(=O)(=O)c1ccc(Br)cc1)Nc1ccccn1,inactive
8,CCOC(=O)Cn1c(S(=O)(=O)Cc2ccccc2Cl)nc(-c2ccccc2)c1-c1ccccc1,active: 9.28 µM
9,CCOC(=O)C1CCN(C(=S)Nc2cc(OC)c(OC)cc2C(=O)OC)CC1,inactive
10,CCOC(=O)c1c(C)n(-c2ccc(C)cc2)c2ccc(O)c(CN(C)C)c12,active: 10.4 µM
11,O=C(C1CCCCC1)N1CCN(C(=O)C2CCCCC2)CC1,"inconclusive [inhibitor, single point]"
12,O=S(=O)(c1ccccc1)N1N=C(c2ccccc2)CC1c1ccccc1F (centres undefined),"inconclusive [inhibitor, partial curve]"
13,O=C(CCNS(=O)(=O)c1ccc(Cl)cc1)N1CCN(c2ncccn2)CC1,"inconclusive [inhibitor, single point]"
14,O=C(Cc1ccc(S(=O)(=O)N2CCOCC2)s1)Nc1nc2c(s1)CCCC2,"inconclusive [inhibitor, partial curve]"
15,CCn1c(SCc2nc(-c3ccccc3)no2)nnc1-c1ccco1,"inconclusive [inhibitor, single point]"
16,CC(Sc1nnc(-c2cccnc2)n1N)C(=O)N1CCOCC1 (centres undefined),"inconclusive [inhibitor, partial curve, poor fit]"
17,O=C(CCS(=O)(=O)c1cc2c(cc1Cl)NC(=O)CO2)NCc1ccccc1,inactive
18,COc1cccc(N2CCN(C(=O)C3CCC(=O)N(C4CCCCCC4)C3)CC2)c1 (centres undefined),active: 8.28 µM
19,c1ccc(Nc2nc(-c3ccccc3)nc3ccccc23)cc1,inactive

# From PubChem BioAssay AID504832 (National Center for Advancing Translational Sciences (NCATS), 2011)
